Results from the supplement of paper PMC4604168 (melanoma cell lines).
This is one part of the list. Single values are uncertain, as repeats are few or missing.

Key:
Test in all cases: cell count relative to DMSO control; melanoma cells; higher = more viable cells
Conditions in all cases: library dose: low library concentration; 72 h
MZ2-MEL = tested on: MZ2-MEL
MeWo = tested on: MeWo
RPMI7951 = tested on: RPMI7951
RVH-421 = tested on: RVH-421
SkMel28 = tested on: SkMel28
SkMel2 = tested on: SkMel2
SkMel30 = tested on: SkMel30
UACC62 = tested on: UACC62
SkMel5 = tested on: SkMel5
UACC257 = tested on: UACC257
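Also: cell number obtained by counting DAPI-stained nuclei in high-throughput microscope images with image analysis software, screen run in 1,536-well plates.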

COc1cc([C@@H]2c3cc4c(cc3[C@@H](O[C@@H]3O[C@@H]5CO[C@@H](C)O[C@H]5[C@H](O)[C@H]3O)[C@H]3COC(=O)[C@H]23)OCO4)cc(OC)c1O [etoposide] + O=C(Nc1cc(C(F)(F)F)cc(C(F)(F)F)c1)c1cc(Cl)ccc1O [IMD0354] (first compound 0.02 µM, partner dose 0.016 µM)
cell count (MZ2-MEL): 101% | cell count (MeWo): 91% | cell count (RPMI7951): 86.7% | cell count (RVH-421): 104% | cell count (SkMel28): 79.1% | cell count (SkMel2): 97.9% | cell count (SkMel30): 88.9% | cell count (UACC62): 69.6%

CCN(CC)CCNC(=O)c1c(C)[nH]c(/C=C2\C(=O)Nc3ccc(F)cc32)c1C [sunitinib] + O=C(O)[C@@H]1[O][Sb](=[O])([O][Sb]2(=[O])[O][C@H]([C@H](O)CO)[C@H](O)[C@H](C(=O)O)[O]2)[O][C@H]([C@H](O)CO)[C@@H]1O [stibogluconate] (first compound 0.4 µM, partner dose 2 µM)
cell count (MZ2-MEL): 100% | cell count (MeWo): 102% | cell count (RPMI7951): 125% | cell count (RVH-421): 118% | cell count (SkMel28): 85.6% | cell count (SkMel2): 116% | cell count (SkMel30): 114% | cell count (UACC62): 97.2%

C[C@]1(O)C[C@@H](c2nc(-c3ccc4ccc(-c5ccccc5)nc4c3)c3c(N)nccn32)C1 + C[C@@H]1CCN(C(=O)CC#N)C[C@@H]1N(C)c1ncnc2[nH]ccc12 [CP690550] (first compound 0.4 µM, partner dose 1 µM)
cell count (MeWo): 103% | cell count (RPMI7951): 130% | cell count (RVH-421): 127% | cell count (SkMel28): 104% | cell count (SkMel2): 83% | cell count (SkMel30): 83.7% | cell count (SkMel5): 99.1% | cell count (UACC257): 69.9% | cell count (UACC62): 105%

CCN(CC)CCNC(=O)c1c(C)[nH]c(/C=C2\C(=O)Nc3ccc(F)cc32)c1C [sunitinib] + CC1(C)NC(=O)N(c2ccc([N+](=O)[O-])c(C(F)(F)F)c2)C1=O [nilutamide] (first compound 0.4 µM, partner dose 1 µM)
cell count (MeWo): 91.6% | cell count (RPMI7951): 117% | cell count (RVH-421): 124% | cell count (SkMel28): 100% | cell count (SkMel30): 76.3% | cell count (SkMel5): 85.8% | cell count (UACC257): 114% | cell count (UACC62): 95.5%

COc1cc([C@@H]2c3cc4c(cc3[C@@H](O[C@@H]3O[C@@H]5CO[C@@H](C)O[C@H]5[C@H](O)[C@H]3O)[C@H]3COC(=O)[C@H]23)OCO4)cc(OC)c1O [etoposide] + CS(=O)(=O)c1ccc(C(=O)Nc2ccc(Cl)c(-c3ccccn3)c2)c(Cl)c1 [vismodegib] (first compound 0.02 µM, partner dose 1 µM)
cell count (MZ2-MEL): 80% | cell count (MeWo): 103% | cell count (RPMI7951): 105% | cell count (RVH-421): 127% | cell count (SkMel28): 101% | cell count (SkMel2): 86.8% | cell count (SkMel30): 110% | cell count (UACC62): 76.6%

C[C@]1(O)C[C@@H](c2nc(-c3ccc4ccc(-c5ccccc5)nc4c3)c3c(N)nccn32)C1 + CC(=O)c1c(C)c2cnc(Nc3ccc(N4CCNCC4)cn3)nc2n(C2CCCC2)c1=O [palbociclib] (first compound 0.4 µM, partner dose 0.04 µM)
cell count (MeWo): 86.1% | cell count (RPMI7951): 84.4% | cell count (RVH-421): 105% | cell count (SkMel28): 92.5% | cell count (SkMel30): 74.3% | cell count (UACC62): 76.1%

COc1cc([C@@H]2c3cc4c(cc3[C@@H](O[C@@H]3O[C@@H]5CO[C@@H](C)O[C@H]5[C@H](O)[C@H]3O)[C@H]3COC(=O)[C@H]23)OCO4)cc(OC)c1O [etoposide] + COC(=O)c1sccc1S(=O)(=O)Nc1ccc(Nc2ccccc2)cc1OC [GSK0660] (first compound 0.02 µM, partner dose 1 µM)
cell count (MeWo): 90.7% | cell count (RPMI7951): 113% | cell count (RVH-421): 83.8% | cell count (SkMel28): 96.5% | cell count (SkMel2): 97.6% | cell count (SkMel30): 128% | cell count (SkMel5): 95% | cell count (UACC257): 127% | cell count (UACC62): 80.4%

Cn1cnc2c(F)c(Nc3ccc(Br)cc3Cl)c(C(=O)NOCCO)cc21 [selumetinib] + C=CCNC1=C2C[C@@H](C)C[C@H](OC)[C@H](O)[C@@H](C)/C=C(\C)[C@H](OC(N)=O)[C@@H](OC)/C=C\C=C(/C)C(=O)NC(=CC1=O)C2=O [Tanespimycin] (first compound 0.015 µM, partner dose 0.002 µM)
cell count (MeWo): 89.4% | cell count (RPMI7951): 108% | cell count (RVH-421): 65.1% | cell count (SkMel28): 81.2% | cell count (SkMel30): 55.9% | cell count (UACC62): 59%

C[C@]1(O)C[C@@H](c2nc(-c3ccc4ccc(-c5ccccc5)nc4c3)c3c(N)nccn32)C1 + COc1ccc(-c2ccc3c(N4CCOCC4)nc(N4C[C@@H](C)O[C@@H](C)C4)nc3n2)cc1CO [KU0063794] (first compound 0.4 µM, partner dose 0.02 µM)
cell count (MeWo): 97.9% | cell count (RPMI7951): 113% | cell count (RVH-421): 74.9% | cell count (SkMel28): 89.3% | cell count (SkMel2): 68.9% | cell count (SkMel30): 73.5% | cell count (SkMel5): 71.7% | cell count (UACC257): 74.4% | cell count (UACC62): 86.3%

C[C@]1(O)C[C@@H](c2nc(-c3ccc4ccc(-c5ccccc5)nc4c3)c3c(N)nccn32)C1 + CCCCCCCCc1ccc(CCC(N)(CO)CO)cc1 [fingolimod] (first compound 0.4 µM, partner dose 2 µM)
cell count (MZ2-MEL): 94.1% | cell count (MeWo): 80.9% | cell count (RPMI7951): 68.4% | cell count (RVH-421): 95.6% | cell count (SkMel28): 78.7% | cell count (SkMel30): 74.5% | cell count (UACC62): 75.5%

COc1cc([C@@H]2c3cc4c(cc3[C@@H](O[C@@H]3O[C@@H]5CO[C@@H](C)O[C@H]5[C@H](O)[C@H]3O)[C@H]3COC(=O)[C@H]23)OCO4)cc(OC)c1O [etoposide] + CCCCCCCCCCCC1=C(O)C(=O)C=C(O)C1=O [Embelin] (first compound 0.02 µM, partner dose 1.2 µM)
cell count (MZ2-MEL): 106% | cell count (MeWo): 107% | cell count (RPMI7951): 88.8% | cell count (RVH-421): 99.3% | cell count (SkMel28): 101% | cell count (SkMel2): 95.4% | cell count (SkMel5): 115% | cell count (UACC257): 97.7% | cell count (UACC62): 96.2%

COc1cc([C@@H]2c3cc4c(cc3[C@@H](O[C@@H]3O[C@@H]5CO[C@@H](C)O[C@H]5[C@H](O)[C@H]3O)[C@H]3COC(=O)[C@H]23)OCO4)cc(OC)c1O [etoposide] + Cn1nnc2c(C(N)=O)ncn2c1=O [temozolomide] (first compound 0.02 µM, partner dose 2 µM)
cell count (MeWo): 88.9% | cell count (RPMI7951): 103% | cell count (RVH-421): 92.2% | cell count (SkMel28): 82.4% | cell count (SkMel2): 99.5% | cell count (SkMel30): 93.8% | cell count (UACC62): 56.1%

CCN(CC)CCNC(=O)c1c(C)[nH]c(/C=C2\C(=O)Nc3ccc(F)cc32)c1C [sunitinib] + O=C(O)C(=O)Nc1sc2c(c1C(=O)O)CCNC2 [TCS401] (first compound 0.4 µM, partner dose 1.66667 µM)
cell count (MeWo): 88.4% | cell count (RPMI7951): 97.8% | cell count (RVH-421): 112% | cell count (SkMel28): 93.2% | cell count (SkMel2): 114% | cell count (SkMel30): 73.2% | cell count (SkMel5): 104% | cell count (UACC257): 96.4% | cell count (UACC62): 91.2%

CCN(CC)CCNC(=O)c1c(C)[nH]c(/C=C2\C(=O)Nc3ccc(F)cc32)c1C [sunitinib] + CS(=O)(=O)CCNCc1ccc(-c2ccc3ncnc(Nc4ccc(OCc5cccc(F)c5)c(Cl)c4)c3c2)o1 [lapatinib] (first compound 0.4 µM, partner dose 0.8 µM)
cell count (MeWo): 83.5% | cell count (RPMI7951): 90.8% | cell count (RVH-421): 109% | cell count (SkMel28): 87.6% | cell count (SkMel30): 53.4% | cell count (UACC62): 88.6%

C[C@]1(O)C[C@@H](c2nc(-c3ccc4ccc(-c5ccccc5)nc4c3)c3c(N)nccn32)C1 + C[C@@H](Oc1cc(-c2cnn(C3CCNCC3)c2)cnc1N)c1c(Cl)ccc(F)c1Cl [Crizotinib] (first compound 0.4 µM, partner dose 0.2 µM)
cell count (MZ2-MEL): 95.8% | cell count (MeWo): 78.3% | cell count (RPMI7951): 96.5% | cell count (RVH-421): 111% | cell count (SkMel28): 93.2% | cell count (SkMel30): 77.6% | cell count (UACC62): 93.7%
